# Data reported in the antibiotic and cytotoxicity screens of Wong et al. (2023).
# The list shows a part of the results.
# Tests used:
# HSkMC = human skeletal muscle cells; experiment: cytotoxicity call (relative viability < 0.9); conditions: 10 µM
# HepG2 = experiment: cytotoxicity call (relative viability < 0.9); conditions: 10 µM
# S. aureus RN4220 = experiment: growth inhibition call (relative growth <= 0.2); conditions: 50 µM
SMILES,cytotoxicity call (HSkMC),cytotoxicity call (HepG2),growth inhibition call (S. aureus RN4220)
C[C@@H]1CN([C@H](C)CO)S(=O)(=O)c2ccc(Br)cc2O[C@@H]1CN(C)C(=O)c1cnccn1,inactive,inactive,inactive
CS(=O)(=O)CCC#N,inactive,inactive,inactive
Cc1ccc(NC(=O)Cc2coc3ccc(C(C)C)cc23)cc1,inactive,inactive,inactive
Cc1ccccc1-c1ccc2c(c1)O[C@@H](CN(C)C(=O)Nc1ccc(C(F)(F)F)cc1)[C@H](C)CN([C@H](C)CO)S2(=O)=O,inactive,inactive,inactive
Cc1noc(C)c1NC(=O)Nc1ccc2c(c1)CC(=O)N([C@@H](C)CO)C[C@@H](C)[C@@H](CN(C)S(=O)(=O)c1cn(C)cn1)O2,inactive,inactive,inactive
Cc1ccc(S(=O)(=O)N(C)C[C@@H]2Oc3ccc(NS(=O)(=O)c4ccccc4)cc3CC(=O)N([C@@H](C)CO)C[C@H]2C)cc1,inactive,inactive,inactive
COc1ccc(NC(=O)N(C)C[C@H]2OCCCC[C@H](C)Oc3ccc(NS(=O)(=O)c4ccc(F)cc4)cc3C(=O)N([C@H](C)CO)C[C@@H]2C)cc1,inactive,inactive,inactive
COCC#Cc1ccc2c(c1)O[C@H](CN(C)S(=O)(=O)c1cccc(OC)c1)[C@H](C)CN([C@@H](C)CO)S2(=O)=O,inactive,inactive,inactive
COc1ccc(S(=O)(=O)Nc2ccc3c(c2)C(=O)N([C@@H](C)CO)C[C@H](C)[C@@H](CN(C)C(=O)Nc2ccc(F)cc2)OCCCC[C@@H](C)O3)cc1,inactive,active,inactive
CN1C[C@@H](N)CC1=O,inactive,inactive,inactive
C[C@H]1CN([C@@H](C)CO)C(=O)CCCn2cc(nn2)CO[C@H]1CN(C)S(=O)(=O)c1cn(C)cn1,inactive,inactive,inactive
C[C@@H]1CN([C@@H](C)CO)C(=O)c2cccc(NC(=O)CCCCCC(=O)Nc3ccccc3N)c2O[C@@H]1CN(C)Cc1ccc(Oc2ccccc2)cc1,inactive,active,inactive
O=C(Cc1ccncc1)NCC[C@H]1CC[C@H](NC(=O)C2CCOCC2)[C@H](CO)O1,inactive,inactive,inactive
COC[C@H]1CN(C(=O)C2CC2)Cc2cnn(C)c21,inactive,inactive,inactive
Cc1noc(C)c1NC(=O)Nc1ccc2c(c1)CC(=O)N([C@H](C)CO)C[C@H](C)[C@H](CN(C)S(=O)(=O)c1c(C)noc1C)O2,inactive,inactive,inactive
C[C@H](CO)N1C[C@H](C)[C@@H](CN(C)C(=O)Nc2ccc(C(F)(F)F)cc2)OCCCC[C@H](C)Oc2ccc(NC(=O)NC3CCCCC3)cc2C1=O,inactive,inactive,inactive
Cc1noc(C)c1S(=O)(=O)N(C)C[C@H]1Oc2ccc(NC(=O)Cn3cnnn3)cc2CC(=O)N([C@H](C)CO)C[C@@H]1C,inactive,inactive,inactive
C[C@H](CO)N1C[C@H](C)[C@H](CN(C)C(=O)Nc2ccccc2)OCCCC[C@H](C)Oc2ccc(NS(=O)(=O)c3ccccc3)cc2C1=O,inactive,inactive,inactive
O=[N+]([O-])c1ccc(/C=C/CN(C/C=C/c2ccc([N+](=O)[O-])cc2)CCCNS(=O)(=O)c2cccc3cnccc23)cc1,inactive,inactive,inactive
C[C@@H]1CCCCO[C@H](CN(C)Cc2ccc(C(F)(F)F)cc2)[C@@H](C)CN([C@H](C)CO)C(=O)c2cc(NS(=O)(=O)c3cn(C)cn3)ccc2O1,inactive,inactive,inactive
CNC[C@H]1Oc2ccc(NS(=O)(=O)c3cn(C)cn3)cc2CC(=O)N([C@H](C)CO)C[C@@H]1C,inactive,inactive,inactive
CS(=O)(=O)N1C[C@H](O)COC[C@@H]2O[C@@H](CC(=O)NCc3ccccc3)CC[C@H]21,inactive,inactive,inactive
c1ccc2c(c1)-c1ccc3ccc4cccc5cc-2c1c3c45,inactive,inactive,inactive
CN(C)C(=O)N1C[C@@H]2COC[C@@]2(CN2CCOCC2)C1,inactive,inactive,inactive
COc1ccccc1-c1cnc2c(c1)C(=O)N([C@@H](C)CO)C[C@H](C)[C@@H](CN(C)C(=O)c1cccnc1)O2,inactive,inactive,inactive
Cc1noc(C)c1NC(=O)N(C)C[C@H]1OCCCC[C@H](C)Oc2ccc(NC(=O)c3ccccc3)cc2C(=O)N([C@@H](C)CO)C[C@@H]1C,inactive,inactive,inactive
COc1ccc(S(=O)(=O)Nc2ccc3c(c2)C(=O)N([C@H](C)CO)C[C@H](C)[C@@H](CN(C)C(=O)CCC(F)(F)F)OCCCC[C@H](C)O3)cc1,inactive,inactive,inactive

SMILES,cytotoxicity call (HSkMC),cytotoxicity call (HepG2),growth inhibition call (S. aureus RN4220)
CCCNC(=O)Nc1ccc2c(c1)OC[C@@H](C)N(Cc1ccc(-c3ccccn3)cc1)C[C@@H](C)[C@@H](OC)CN(C)C2=O,inactive,inactive,inactive
OC[C@@H]1Cc2ccccc2CN1,inactive,inactive,inactive
COc1ccc(NC(=O)Nc2ccc3c(c2)C(=O)N([C@@H](C)CO)C[C@@H](C)[C@H](CN(C)C(=O)Nc2ccc(F)cc2)OCCCC[C@H](C)O3)cc1,inactive,inactive,inactive
C[C@H](CO)N1C[C@H](C)[C@@H](CN(C)C(=O)Nc2ccccc2)Oc2ccc(NC(=O)Nc3ccc(C(F)(F)F)cc3)cc2C1=O,inactive,inactive,inactive
COCC(=O)N1CC[C@]2(CC1)CN([C@@H](CO)c1[nH]c3cc(ccc3c12)OC)S(=O)(=O)C,inactive,inactive,inactive
C[C@@H]1CN([C@H](C)CO)S(=O)(=O)c2ccc(C#CC3CC3)cc2O[C@H]1CN(C)C(=O)c1cccc(F)c1,inactive,inactive,inactive
C[C@H]1CN([C@@H](C)CO)S(=O)(=O)c2ccc(-c3ccc(C(=O)N(C)C)cc3)cc2O[C@H]1CN(C)C(=O)Cc1ccccn1,inactive,inactive,inactive
CN1CCN(C(=O)C[C@@H]2CC[C@H]3[C@@H](COC[C@@H](O)CN3CC3CCCC3)O2)CC1,inactive,inactive,inactive
COC(=O)CCCCCCC(=O)Nc1ccc([C@H]2O[C@@H](CSc3ccccn3)C[C@H](c3ccccc3)O2)cc1,inactive,inactive,inactive
Cc1noc(C)c1S(=O)(=O)Nc1ccc2c(c1)C(=O)N([C@H](C)CO)C[C@H](C)[C@H](CN(C)Cc1ccc(C(=O)O)cc1)O2,inactive,inactive,inactive
NCc1ccc(-c2nccs2)cc1,inactive,inactive,inactive
CCNC1CC(C)S(=O)(=O)c2sc(S(N)(=O)=O)cc21.Cl (configuration not stated),inactive,inactive,inactive
Cc1noc(C)c1NC(=O)Nc1ccc2c(c1)C(=O)N([C@@H](C)CO)C[C@@H](C)[C@H](CN(C)C(=O)Nc1ccc3c(c1)OCO3)OCCCC[C@H](C)O2,inactive,inactive,inactive
C[C@H](CO)N1C[C@H](C)[C@@H](CN(C)C(=O)C2CCCCC2)Oc2cc(Br)ccc2S1(=O)=O,inactive,inactive,inactive
Cc1ccc(S(=O)(=O)Nc2cccc3c2O[C@@H](CN(C)Cc2ccc(Oc4ccccc4)cc2)[C@H](C)CN([C@@H](C)CO)C3=O)cc1,inactive,inactive,inactive
CC(C)NC(=O)N(C)C[C@@H]1OCCCC[C@H](C)Oc2ccc(NC(=O)Nc3ccc(C(F)(F)F)cc3)cc2C(=O)N([C@@H](C)CO)C[C@@H]1C,active,active,inactive
Cc1noc(C)c1S(=O)(=O)N(C)C[C@H]1OCCCC[C@@H](C)Oc2ccc(NS(=O)(=O)c3cn(C)cn3)cc2C(=O)N([C@@H](C)CO)C[C@H]1C,inactive,inactive,inactive
O=C(C[C@@H]1CC[C@@H](NC(=O)CN2CCOCC2)[C@H](CO)O1)NCCc1ccncc1,inactive,inactive,inactive
Cc1noc(C)c1NC(=O)N(C)C[C@@H]1OCCCC[C@H](C)Oc2ccc(NS(=O)(=O)c3ccc(Cl)cc3)cc2C(=O)N([C@@H](C)CO)C[C@H]1C,inactive,inactive,inactive
Cc1noc(C)c1NC(=O)N(C)C[C@H]1Oc2ncc(C#CCN(C)C)cc2C(=O)N([C@H](C)CO)C[C@H]1C,inactive,inactive,inactive
C[C@@H]1CN([C@H](C)CO)C(=O)c2cc(NC(=O)Nc3ccccc3)ccc2O[C@@H](C)CCCCO[C@H]1CN(C)C(=O)Nc1ccc(C(F)(F)F)cc1,inactive,inactive,inactive
C[C@H]1CN([C@@H](C)CO)C(=O)c2cc(NC(=O)C3CC3)ccc2O[C@@H]1CN(C)C(=O)NC1CCCCC1,inactive,inactive,inactive
Cc1noc(C)c1NC(=O)Nc1cccc2c1O[C@@H](CN(C)Cc1ccc(-c3ccccc3)cc1)[C@@H](C)CN([C@H](C)CO)C2=O,inactive,inactive,inactive
C[C@H]1CCCCO[C@H](CN(C)S(=O)(=O)c2ccc(Cl)cc2)[C@@H](C)CN([C@@H](C)CO)C(=O)c2cc(NC(=O)c3ccccc3)ccc2O1,inactive,active,inactive
COCC(=O)N1CC[C@]2(CC1)CN(Cc1ccc3c(c1)OCO3)[C@H](CO)c1c2c2ccc(cc2n1C)OC,inactive,inactive,inactive
CC(=O)N[C@H](Cc1ccc2ccccc2c1)C(=O)N[C@H](Cc1ccc(Cl)cc1)C(=O)N[C@H](Cc1cccnc1)C(=O)N[C@@H](CO)C(=O)N[C@@H](Cc1ccc(O)cc1)C(=O)N[C@H](CCCNC(N)=O)C(=O)N[C@@H](CC(C)C)C(=O)N[C@@H](CCCNC(=N)N)C(=O)N1CCC[C@H]1C(=O)N[C@H](C)C(N)=O,inactive,inactive,inactive
C[C@@H]1CN([C@H](C)CO)C(=O)c2cc(NS(=O)(=O)c3ccc(F)cc3)ccc2O[C@@H]1CN(C)S(=O)(=O)c1cccs1,inactive,inactive,inactive
